According to a collection of fitness landscapes (doi:10.1016/j.celrep.2020.107928):
In all, about 81,000 sequences were measured (“one-hybrid fitness for binding NBS DNA”: median about -0.1, highest 2% from about 0.36 on). This is one part of the list.

B1: Caulobacter ParB omega fusion; a variant is named by its letters at X, in order, B8GW30 (parent)
chain: MESVVVGEPGMSEGRRGLGRGLSALLGEVDAAPAQAPGEQLGGSREAPIEILQRNPDQPRRTFREEDLEDLSNSIREKGVLQPILVRPSPDTAGEYQIVAGERAWRAAQRAGLKTVPIMVRELDDLAVLEIGIIENVQRADLNVLEEALSYKVLMEKFERTQENIAQTIGKSXSHVANXMRLLXLPDEVQSYLVSGELTAXHARAIAAAADPVALAKQIIEGGLSVRETEALARKAPNLSAGKSKGGRPPRVKDTDTQALESDLSSVLGLDVSIDHRGSTGTLTITYATLEQLDDLCNRLTRGI

Variants of: B1
Assay: one-hybrid fitness for binding NBS DNA (the Noc-binding site; scaled: cognate 1, non-cognate 0); higher = stronger binding
Settings: with NBS DNA site
How it was run: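 Values were rescaled so that cognate is 1 and non-cognate is 0. Each is a fitness, the log change in a variant's read ratio to wild type from Illumina reads of plasmids before and after selection, with three replicate libraries pooled and variants under 10 reads dropped. Selection of the Caulobacter ParB libraries, four specificity codons randomised, used E. coli USO with a HIS3 reporter, site 19 bp from the promoter, on M9-minus-histidine with 0.1 mM IPTG and 5 mM 3-AT for 48 hours at 37°C.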

Row | Variant | one-hybrid fitness for binding NBS DNA
1 | HSYK | ≤ 0.2
2 | DGYR | ≤ 0.2
3 | KKNY | ≤ 0.2
4 | PWNF | ≤ 0.2
5 | ARPK | ≤ 0.2
6 | MIHS | ≤ 0.2
7 | RVQS | 0.357
8 | FLYK | ≤ 0.2
9 | RHNS | 0.505
10 | TFTP | ≤ 0.2
11 | LRIC | ≤ 0.2
12 | TTRW | ≤ 0.2
13 | TRIY | ≤ 0.2
14 | HIWM | ≤ 0.2
15 | TNLS | ≤ 0.2
16 | SYWD | ≤ 0.2
17 | HMAW | ≤ 0.2
18 | RSNL | ≤ 0.2
19 | YLTM | ≤ 0.2
20 | HLQV | ≤ 0.2
21 | RPLS | ≤ 0.2
22 | VSSE | ≤ 0.2
23 | WSGG | ≤ 0.2
24 | RLVA | ≤ 0.2

Row | Variant | one-hybrid fitness for binding NBS DNA
25 | DFAM | ≤ 0.2
26 | TCNC | ≤ 0.2
27 | YLAL | ≤ 0.2
28 | PGRR | ≤ 0.2
29 | HVYV | ≤ 0.2
30 | VEDG | ≤ 0.2
31 | YTAC | ≤ 0.2
32 | MVHQ | ≤ 0.2
33 | DCRA | ≤ 0.2
34 | AGHR | ≤ 0.2
35 | TVKI | ≤ 0.2
36 | NVIR | ≤ 0.2
37 | CSQW | ≤ 0.2
38 | RSYD | ≤ 0.2
39 | YPKG | ≤ 0.2
40 | YPTI | ≤ 0.2
41 | RTAW | ≤ 0.2
42 | SRES | ≤ 0.2
43 | EFET | ≤ 0.2
44 | RIQY | ≤ 0.2
45 | EQYC | ≤ 0.2
46 | RHEN | ≤ 0.2
47 | QLGC | ≤ 0.2
48 | ARGA | ≤ 0.2

Row | Variant | one-hybrid fitness for binding NBS DNA
49 | LYND | ≤ 0.2
50 | GLWS | ≤ 0.2
51 | EHCR | ≤ 0.2
52 | RGEW | ≤ 0.2
53 | VKKV | ≤ 0.2
54 | GTPT | ≤ 0.2
55 | PQTK | ≤ 0.2
56 | VAGG | ≤ 0.2
57 | PLER | ≤ 0.2
58 | QHCW | ≤ 0.2
59 | TYEN | ≤ 0.2
60 | RNVM | ≤ 0.2
61 | GSGL | ≤ 0.2
62 | GGNS | ≤ 0.2
63 | QTYM | ≤ 0.2
64 | RCDM | ≤ 0.2
65 | LMWA | ≤ 0.2
66 | PLWI | ≤ 0.2
67 | TTHS | ≤ 0.2
68 | RCNE | ≤ 0.2
69 | SSLQ | ≤ 0.2
70 | ANRI | ≤ 0.2
71 | RESI | ≤ 0.2
72 | QVLL | ≤ 0.2

Row | Variant | one-hybrid fitness for binding NBS DNA
73 | KMVW | ≤ 0.2
74 | VKVV | ≤ 0.2
75 | AFKT | ≤ 0.2
76 | SVQY | ≤ 0.2
77 | CCTL | ≤ 0.2
78 | DTLL | ≤ 0.2
79 | HNFD | ≤ 0.2
80 | QRHY | 0.553
81 | WLHC | ≤ 0.2
82 | RFTC | ≤ 0.2
83 | CSFS | ≤ 0.2
84 | RGEC | ≤ 0.2
85 | RCDQ | ≤ 0.2
86 | DGSC | ≤ 0.2
87 | SMNH | ≤ 0.2
88 | FNSK | ≤ 0.2
89 | VQSS | ≤ 0.2
90 | LMTA | ≤ 0.2
91 | QKPF | ≤ 0.2
92 | QTLS | 0.426
93 | CYMA | ≤ 0.2
94 | PETV | ≤ 0.2
95 | DNWY | ≤ 0.2
96 | VKMF | ≤ 0.2

Row | Variant | one-hybrid fitness for binding NBS DNA
97 | EKPG | ≤ 0.2
98 | KLMQ | ≤ 0.2
99 | ACTE | ≤ 0.2
100 | RFRA | ≤ 0.2
101 | AVAF | ≤ 0.2
102 | PKDG | ≤ 0.2
103 | TWKS | ≤ 0.2
104 | AMSL | ≤ 0.2
105 | TEYS | ≤ 0.2
106 | CQGR | ≤ 0.2
107 | PYRG | ≤ 0.2
108 | YLKD | ≤ 0.2
109 | CLRH | ≤ 0.2
110 | VVWG | ≤ 0.2
111 | HGQC | ≤ 0.2
112 | CSAV | ≤ 0.2
113 | NSSW | ≤ 0.2
114 | WQGN | ≤ 0.2
115 | AEPF | ≤ 0.2
116 | VIMY | ≤ 0.2
117 | KTHF | ≤ 0.2
118 | QFRM | ≤ 0.2
119 | HFCG | ≤ 0.2
120 | DVQL | ≤ 0.2

Row | Variant | one-hybrid fitness for binding NBS DNA
121 | LQSF | ≤ 0.2
122 | TKHS | ≤ 0.2
123 | NQPL | ≤ 0.2
124 | PANY | ≤ 0.2
125 | LGKT | ≤ 0.2
126 | QGRE | ≤ 0.2
127 | RHWG | ≤ 0.2
128 | NYHS | ≤ 0.2
129 | PMRL | ≤ 0.2
130 | KISR | ≤ 0.2
131 | FCDT | ≤ 0.2
132 | YLGD | ≤ 0.2
133 | RDST | ≤ 0.2
134 | LMIL | ≤ 0.2
135 | TQER | ≤ 0.2
136 | ECKG | ≤ 0.2
137 | TSWL | ≤ 0.2
138 | VKVR | ≤ 0.2
139 | LHGC | ≤ 0.2
140 | WYAC | ≤ 0.2
141 | PFSL | ≤ 0.2
142 | TCRN | ≤ 0.2
143 | HGKY | ≤ 0.2
144 | LLAS | ≤ 0.2

Row | Variant | one-hybrid fitness for binding NBS DNA
145 | SLNW | ≤ 0.2
146 | NTAW | ≤ 0.2
147 | VQTW | ≤ 0.2
148 | ALYF | ≤ 0.2
149 | TLCF | ≤ 0.2
150 | SHQP | ≤ 0.2
151 | AVKE | ≤ 0.2
152 | SVLD | ≤ 0.2
153 | QNNH | ≤ 0.2
154 | LGWL | ≤ 0.2
155 | RKDF | ≤ 0.2
156 | QFKT | 0.388
157 | YPLE | ≤ 0.2
158 | PWSR | ≤ 0.2
159 | FRYA | ≤ 0.2
160 | PMGS | ≤ 0.2
161 | PGIC | ≤ 0.2
162 | LQWI | ≤ 0.2
163 | STSM | ≤ 0.2
164 | SLLG | ≤ 0.2
165 | FNPR | ≤ 0.2
166 | TPHG | ≤ 0.2
167 | SSMH | ≤ 0.2
168 | ECIV | ≤ 0.2

Row | Variant | one-hybrid fitness for binding NBS DNA
169 | QTPC | ≤ 0.2
170 | QIMC | ≤ 0.2
171 | CKMG | ≤ 0.2
172 | MGRI | ≤ 0.2
173 | FINF | ≤ 0.2
174 | YWWR | ≤ 0.2
175 | AATM | ≤ 0.2
176 | EGIC | ≤ 0.2
177 | RCYH | ≤ 0.2
178 | QSHG | ≤ 0.2
179 | MLLP | ≤ 0.2
180 | QVMY | ≤ 0.2
181 | KYKM | ≤ 0.2
182 | VSLR | ≤ 0.2
183 | QANQ | ≤ 0.2
184 | GQAG | ≤ 0.2
185 | TLCA | ≤ 0.2
186 | QSVR | 0.379
187 | SRTK | ≤ 0.2
188 | EWLT | ≤ 0.2
189 | MVSC | ≤ 0.2
190 | AQEK | ≤ 0.2
191 | QTLT | 0.527
192 | MHTE | ≤ 0.2

Row | Variant | one-hybrid fitness for binding NBS DNA
193 | PLQF | ≤ 0.2
194 | EMSW | ≤ 0.2
195 | MFHS | ≤ 0.2
196 | KMLW | ≤ 0.2
197 | VTVH | ≤ 0.2
198 | RMAC | ≤ 0.2
199 | VWPC | ≤ 0.2
200 | VDSN | ≤ 0.2
201 | KGWL | ≤ 0.2
202 | RDLN | ≤ 0.2
203 | AHAF | ≤ 0.2
204 | RFDW | ≤ 0.2
205 | RPSR | ≤ 0.2
206 | FARG | ≤ 0.2
207 | DSYC | ≤ 0.2
208 | NDPK | ≤ 0.2
209 | DASR | ≤ 0.2
210 | TDLL | ≤ 0.2
211 | VESG | ≤ 0.2
212 | PKAC | ≤ 0.2
213 | RLQP | ≤ 0.2
214 | PDRR | ≤ 0.2
215 | GFMS | ≤ 0.2
216 | CSNM | ≤ 0.2

Row | Variant | one-hybrid fitness for binding NBS DNA
217 | DMVF | ≤ 0.2
218 | RNLR | ≤ 0.2
219 | YPEY | ≤ 0.2
220 | NIDV | ≤ 0.2
221 | RQKY | 0.331
222 | PDSV | ≤ 0.2
223 | HHGL | ≤ 0.2
224 | RKCT | 0.583
225 | TSGH | ≤ 0.2
226 | LPIV | ≤ 0.2
227 | MGAG | ≤ 0.2
228 | KNIT | ≤ 0.2
229 | CKAC | ≤ 0.2
230 | QTYN | ≤ 0.2
231 | IRPF | ≤ 0.2
232 | CVHV | ≤ 0.2
233 | VLAR | ≤ 0.2
234 | CRFT | ≤ 0.2
235 | WHQT | ≤ 0.2
236 | YSSG | ≤ 0.2
237 | PWKS | ≤ 0.2
238 | SRAL | ≤ 0.2
239 | ARKD | ≤ 0.2
240 | RLEL | ≤ 0.2

Row | Variant | one-hybrid fitness for binding NBS DNA
241 | MVHS | ≤ 0.2
242 | HAHP | ≤ 0.2
243 | RGNY | ≤ 0.2
244 | RETI | ≤ 0.2
245 | ETSF | ≤ 0.2
246 | ATHQ | ≤ 0.2
247 | CYHM | ≤ 0.2
248 | PDFI | ≤ 0.2
249 | AWSL | ≤ 0.2
250 | YFSR | ≤ 0.2
251 | LNTC | ≤ 0.2
252 | RHSF | ≤ 0.2
253 | AAMY | ≤ 0.2
254 | QGSE | ≤ 0.2
255 | SALE | ≤ 0.2
256 | SCCT | ≤ 0.2
257 | RTIE | ≤ 0.2
258 | PHTV | ≤ 0.2
259 | LCSE | ≤ 0.2
260 | LSIM | ≤ 0.2
261 | STLE | ≤ 0.2
262 | KRNT | 0.617
263 | YEEM | ≤ 0.2
264 | AYDP | ≤ 0.2

Row | Variant | one-hybrid fitness for binding NBS DNA
265 | GLNG | ≤ 0.2
266 | VQGI | ≤ 0.2
267 | CTAV | ≤ 0.2
268 | PVRA | ≤ 0.2
269 | YYVQ | ≤ 0.2
270 | YTTW | ≤ 0.2
271 | LPGK | ≤ 0.2
272 | SHVG | ≤ 0.2
273 | IQAT | ≤ 0.2
274 | FLGV | ≤ 0.2
275 | YPLC | ≤ 0.2
276 | RMSD | ≤ 0.2
277 | QHFA | ≤ 0.2
278 | HLPV | ≤ 0.2
279 | NLSF | ≤ 0.2
280 | HYED | ≤ 0.2
281 | IGST | ≤ 0.2
282 | ATSV | ≤ 0.2
283 | HGRM | ≤ 0.2
284 | RRAV | 0.309
285 | PSVE | ≤ 0.2
286 | LNTE | ≤ 0.2
287 | EALG | ≤ 0.2
288 | KRDA | ≤ 0.2

Row | Variant | one-hybrid fitness for binding NBS DNA
289 | ERRS | ≤ 0.2
290 | NIFD | ≤ 0.2
291 | RCHH | 0.219
292 | GWIG | ≤ 0.2
293 | MYER | ≤ 0.2
294 | LNHG | ≤ 0.2
295 | SKLL | ≤ 0.2
296 | RGRC | ≤ 0.2
297 | NEYS | ≤ 0.2
298 | REKI | ≤ 0.2
299 | AQSV | ≤ 0.2
300 | TNRD | ≤ 0.2
301 | GLGC | ≤ 0.2
302 | TEHD | ≤ 0.2
303 | KGIT | ≤ 0.2
304 | QAHV | ≤ 0.2
305 | VIGS | ≤ 0.2
306 | HTHK | ≤ 0.2
